From PubChem BioAssay AID686978 (National Center for Advancing Translational Sciences (NCATS), 2013)
Values joined by “and” are separate entries in the source; they are usually repeats but may differ in a detail not shown here. Identical values can stand only once. Among all 420,000 compounds or so, about 64,000 (15%) were called active. The shares of active, inactive and inconclusive entries below differ from those in the screen. Calls come from the whole dose curve; as a rule, active = well fitted inhibition curve with a large enough effect; inconclusive = small, poorly fitted or top-dose-only effect; inactive = flat fitted curve, though single readings scatter. A potency beside an inconclusive call is a rough fit, not a confirmed value.

Assay: qHTS for Inhibitors of human tyrosyl-DNA phosphodiesterase 1 (TDP1): qHTS in cells in absence of CPT; note: nearly all actives have a fitted effect of over 55% in size
Details: DT40 Tdp1-/- hTDP1 cells, no CPT, ATP luminescence, 48 h; activity change, negative = growth inhibition: at 46.2 µM (top of the series) unless noted
How it was run: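 Stably hTDP1-transfected Tdp1-null chicken DT40 cells were treated with library compounds minus camptothecin and grown for at least 48 hr at 37 °C, after which cellular ATP was quantified by luminescence.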
% is set by controls: 0 for no effect and ±100 for the full control effect; potency is the fitted concentration of half-maximal effect; tags give direction and shape of the fitted curve.

Row | Structure (SMILES) | Potency | activity change, negative = growth inhibition
1 | COc1ccc(-c2cc(-c3nnc(COC(=O)C4CC4C)o3)c3ccccc3n2)cc1OC (centres undefined) | active: 16.4 µM | –
2 | O=C(Cc1ccccc1)Nc1ccc(SC(F)F)cc1 | inconclusive: 6.51 µM [inhibitor, partial curve] | –
3 | O=c1c(-c2ccc(F)cc2)nc2cnc(N3CCOCC3)nc2n1CCc1ccccc1 | inactive | –
4 | C=CCNc1nnc(SC2CC(=O)N(c3ccc(OCCC)cc3)C2=O)s1 (centres undefined) | active: 4.11 µM | –
5 | Cc1ccc(NC(=O)c2cccc3c2C(=O)N(C2CCCCC2)C3)c(C)c1 | inactive and inconclusive: 2.31 µM [inhibitor, partial curve] | –
6 | CC(C)C(=O)N1N=C(c2ccc(NS(C)(=O)=O)cc2)CC1c1cccs1 (centres undefined) | inconclusive: 29.1 µM [inhibitor, single point] | –
7 | O=C(Nc1nc2ccccc2s1)c1ccc(F)cc1 | inconclusive: 32.6 µM [inhibitor, single point] | –
8 | CCOC(=O)c1ccc(NC(=O)CN2CCN(Cc3ccccc3)CC2)cc1 | inconclusive: 25.9 µM [inhibitor, partial curve] | –
9 | O=C(CN1CCN(c2ccccn2)CC1)Nc1nc2ccccc2s1 | inconclusive: 29.1 µM [inhibitor, single point] | –
10 | COc1ccccc1-c1nc2c(c(SCC(=O)Nc3ccc(C)c(C)c3)n1)Cc1c(CO)cnc(C)c1O2 | active: 9.2 µM | –
11 | Brc1ccc(CSc2nnc(-c3ccco3)o2)cc1 | inconclusive: 2.06 µM [inhibitor, partial curve, poor fit] | –
12 | Clc1cccc(Cc2c(-c3cccc(Cl)c3)nc3c4ccccc4ccn23)c1 | active: 16.4 µM | –
13 | CCOC(=O)c1cocc1C(=O)O | inactive | –
14 | CCCCn1nnnc1C(c1ccccc1)N1CCN(c2cc(C)ccc2C)CC1 (centres undefined) | inconclusive: 29.1 µM [inhibitor, single point] | –
15 | CNC(=O)c1sccc1SCc1c(Cl)cccc1Cl | inconclusive: 18.4 µM [inhibitor, single point] | –
16 | CC[C@]12c3[nH]c4cc(-c5ccco5)ccc4c3CCN1C(=O)[C@@H](CC(=O)NCCCN(C)C)C[C@@H]2C(=O)N1CCN(C(=O)c2ccco2)CC1 | inactive | –
17 | CCCn1nnnc1NC(=O)c1cccs1 | inconclusive: 29.1 µM [inhibitor, single point] | –
18 | Cc1c(C)n(C)c2ccc(C(=O)NCCCN3CCCCC3C)cc12 (centres undefined) | inactive | –
19 | O=S(=O)(c1ccccc1)N1CCC2(CC1)CN(c1ccccc1)C2 | inconclusive: 16.4 µM [inhibitor, partial curve, poor fit] | –
20 | CN(C)C(CNC(=O)c1ccc(C2SCCS2)cc1)c1ccccc1 (centres undefined) | inactive | –
21 | C=CCn1c(SCc2nc3ccccc3c(=O)[nH]2)nc2sc3c(c2c1=O)CCCC3 | – | inconclusive: -32.6% [inhibitor]
22 | CC(NC(=S)Nc1ccc(S(N)(=O)=O)cc1)c1ccc2c(c1)OCO2 (centres undefined) | inconclusive: 20.6 µM [inhibitor, partial curve] | –

Row | Structure (SMILES) | Potency | activity change, negative = growth inhibition
23 | Cn1c(Cl)c(/C=N/OC(=O)c2ccccc2Cl)c2ccccc21 | inconclusive: 20.6 µM [inhibitor, partial curve, poor fit] | –
24 | CCCC(C)NC(=O)COc1ccc(S(=O)(=O)c2ccc(OCC(=O)NC(C)CCC)cc2)cc1 (centres undefined) | – | inconclusive: -33.4% [inhibitor]
25 | Brc1ccc2c(c1)OCCOCCOCCOCCOCCOCCO2 | inconclusive: 29.1 µM [inhibitor, single point] | –
26 | CC(C)C(=O)c1cn(CC(=O)NCc2ccc3c(c2)OCO3)c2ccccc12 | inconclusive: 29.1 µM [inhibitor, single point] | –
27 | CCN(C(=O)Cn1c(=O)oc2ccccc21)c1ccc(C)c(C)c1 | inactive | –
28 | CCOc1ccc(N(CC(=O)NCc2ccco2)C(=O)CCC(=O)Nc2ccccn2)cc1 | inactive | –
29 | Cn1c(N)c(C(=O)CSc2ncn[nH]2)c(=O)n(C)c1=O | inactive | –
30 | Cc1sc2nc(CSCC(=O)Nc3c(F)cccc3F)[nH]c(=O)c2c1C | active: 10.3 µM | –
31 | CC1=C(C(=O)OC(C)C)C(c2cccc([N+](=O)[O-])c2)C(C(=O)OC2CN(C(c3ccccc3)c3ccccc3)C2)=C(N)N1 (centres undefined) | inconclusive: 18.8 µM [inhibitor, single point] | –
32 | CCOC(=O)C1CCCN(c2cc(C)nc3c(-c4ccccc4OC)c(C)nn23)C1 (centres undefined) | inconclusive: 18.4 µM [inhibitor, single point] | –
33 | COCCCNC(=O)c1ccccc1N(Cc1ccccc1)S(=O)(=O)c1ccccc1 | inconclusive: 18.4 µM [inhibitor, partial curve] | –
34 | Cc1ccc(OCCN2C(=O)OC(C)(C)C2(C)O)cc1 (centres undefined) | inactive | –
35 | Cc1ccc(S(=O)(=O)N2CCC(=O)N(C(COCc3ccc(Cl)cc3)Cc3ccccc3)CC2)cc1 (centres undefined) | active: 16.4 µM | –
36 | Cc1cccc(N2CCN(C(=O)COc3ccc4c(C)cc(=O)oc4c3C)CC2)c1C | active: 14.6 µM | –
37 | CN(Cc1cccnc1)C(=O)CNC(=O)COc1ccccc1 | inactive | –
38 | CCCCn1c(N)c(N(CC(C)C)C(=O)c2cccs2)c(=O)[nH]c1=O | inactive | –
39 | Cc1ccc(C)c(NC(=O)Cn2cc(C(=O)c3ccco3)c3ccccc32)c1 | inconclusive: 3.66 µM [inhibitor, partial curve] | –
40 | CCC(C)N1CC(=O)N2C(c3ccc(OC)cc3OC)c3[nH]c4ccccc4c3C[C@H]2C1=O (some centres undefined) | inconclusive: 29.1 µM [inhibitor, single point] | –
41 | O=C(NNC(=O)c1cc(-c2ccc(Cl)cc2Cl)nc2ccccc12)Nc1ccccc1 | active: 20.6 µM | –
42 | Cc1ccc(C)c(Cn2nnc3c(=O)[nH]c(C4CCN(S(=O)(=O)c5ccc(S(=O)(=O)N(C)C)cc5)CC4)nc32)c1 | inconclusive: 18.4 µM [inhibitor, single point] | –
43 | COc1ccc(Cl)cc1C1=CC(=O)C[C@H](c2ccc(F)cc2)C1 | inconclusive: 29.1 µM [inhibitor, single point] | –
44 | NC(CCc1ccccc1)c1csc(Nc2ccccn2)n1 (centres undefined) | inconclusive: 29.1 µM [inhibitor, single point] | –
